# Laboratory results from the supplement of paper PMC4604168 (melanoma cell lines).
# The other results are listed elsewhere or left out. Most values come without repeats; read them as rough.
# Assays:
# Test in all cases: cell count relative to DMSO control; melanoma cells; higher = more viable cells
# Settings in all cases: library dose: standard library concentration; 72 h
# A101D = system: A101D
# A2058 = system: A2058
# A375 = system: A375
# 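Note: cells treated in 1,536-well plates, then fixed and DAPI-stained, with nuclei counted from automated high-throughput microscope images.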
SMILES,cell count (A101D) [%],cell count (A2058) [%],cell count (A375) [%]
"COc1ccc(C2=N[C@@H](c3ccc(Cl)cc3)[C@@H](c3ccc(Cl)cc3)N2C(=O)N2CCNC(=O)C2)c(OC(C)C)c1 [Nutlin-3] + COc1ccc(Cl)c(Nc2nc3ccccc3nc2NS(=O)(=O)c2cccc(NC(=O)C(C)(C)N)c2)c1 [XL147] (first compound 0.5 µM, partner dose 4 µM)",68.3,75.6,95.5
"Cc1cn(-c2cc(NC(=O)c3ccc(C)c(Nc4nccc(-c5cccnc5)n4)c3)cc(C(F)(F)F)c2)cn1 [nilotinib] + CS(=O)(=O)c1ccc(C(=O)Nc2ccc(Cl)c(-c3ccccn3)c2)c(Cl)c1 [vismodegib] (first compound 1 µM, partner dose 5 µM)",98.6,123,159
"Cc1cn(-c2cc(NC(=O)c3ccc(C)c(Nc4nccc(-c5cccnc5)n4)c3)cc(C(F)(F)F)c2)cn1 [nilotinib] + O=C(O)[C@@H]1[O][Sb](=[O])([O][Sb]2(=[O])[O][C@H]([C@H](O)CO)[C@H](O)[C@H](C(=O)O)[O]2)[O][C@H]([C@H](O)CO)[C@@H]1O [stibogluconate] (first compound 1 µM, partner dose 10 µM)",98.7,110,220
"Cc1cn(-c2cc(NC(=O)c3ccc(C)c(Nc4nccc(-c5cccnc5)n4)c3)cc(C(F)(F)F)c2)cn1 [nilotinib] + C[C@@H](Oc1cc(-c2cnn(C3CCNCC3)c2)cnc1N)c1c(Cl)ccc(F)c1Cl [Crizotinib] (first compound 1 µM, partner dose 1 µM)",81.3,82.1,120
"CC(C)C[C@H](NC(=O)[C@H](Cc1ccccc1)NC(=O)c1cnccn1)B(O)O [Bortezomib] + CN(C)S(=O)(=O)c1ccc2c(c1)/C(=C/c1cc3c([nH]1)CCCC3)C(=O)N2 [SU6656] (first compound 0.005 µM, partner dose 2 µM)",8.05,9.48,108
"CC(C)C[C@H](NC(=O)[C@H](Cc1ccccc1)NC(=O)c1cnccn1)B(O)O [Bortezomib] + Nc1cccc2c1CN(C1CCC(=O)NC1=O)C2=O [lenalidomide] (first compound 0.005 µM, partner dose 5 µM)",14.8,16.6,87.8
"COc1ccc(C2=N[C@@H](c3ccc(Cl)cc3)[C@@H](c3ccc(Cl)cc3)N2C(=O)N2CCNC(=O)C2)c(OC(C)C)c1 [Nutlin-3] + Cc1ccc(NC(=O)c2cccc(N(C)C)c2)cc1NC(=O)c1ccc(O)cc1 [ZM336372] (first compound 0.5 µM, partner dose 10 µM)",80.4,86.8,91.7
"Cc1cc(Nc2cc(N3CCN(C)CC3)nc(/C=C/c3ccccc3)n2)n[nH]1 + O=C(O)c1ccc(-c2c[nH]c3ncc(-c4ccccc4)cc23)cc1C1CCCC1 [GSK650394] (first compound 0.2 µM, partner dose 0.8 µM)",77.5,83.6,78.1
"Cn1c(=O)n(-c2ccc(C(C)(C)C#N)cc2)c2c3cc(-c4cnc5ccccc5c4)ccc3ncc21 + NC(=O)Nc1cc(-c2cccc(F)c2)sc1C(=O)N[C@H]1CCCNC1 [AZD7762] (first compound 0.02 µM, partner dose 0.1 µM)",59.5,61.5,45.9
"Cn1c(=O)n(-c2ccc(C(C)(C)C#N)cc2)c2c3cc(-c4cnc5ccccc5c4)ccc3ncc21 + C=CCNC1=C2C[C@@H](C)C[C@H](OC)[C@H](O)[C@@H](C)/C=C(\C)[C@H](OC(N)=O)[C@@H](OC)/C=C\C=C(/C)C(=O)NC(=CC1=O)C2=O [Tanespimycin] (first compound 0.02 µM, partner dose 0.01 µM)",66.7,50.4,91.4
"CC(C)C[C@H](NC(=O)[C@H](Cc1ccccc1)NC(=O)c1cnccn1)B(O)O [Bortezomib] + O=C(Nc1cccc(Cl)c1)Nc1ncc(CCNc2ncnc3ccsc23)s1 [SNS314] (first compound 0.005 µM, partner dose 0.004 µM)",20,10.7,86.1
"Cc1cn(-c2cc(NC(=O)c3ccc(C)c(Nc4nccc(-c5cccnc5)n4)c3)cc(C(F)(F)F)c2)cn1 [nilotinib] + CNC(=O)c1cc(Oc2ccc(NC(=O)Nc3ccc(Cl)c(C(F)(F)F)c3)cc2)ccn1 [sorafenib] (first compound 1 µM, partner dose 2 µM)",76.5,119,102
